Read counts are not given, so values of variants with three or more changes are uncertain.
B1: CPEB3 Ribozyme (parent)
chain: UAACAGGGGGCCACAGCAGAAGCGUUCACGUCGCAGCCCCUGUCAGAUUCUGGUGAAUCUGCGAAUUCUGCUGUAUAUCUC

Variants of: B1
Assay: self-cleavage, relative activity (ratio to wild type); higher = more cleavage; in vitro, sequencing
How it was run: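 Relative activity was defined as the cleaved/total read fraction for a variant divided by the same fraction for the unmutated ribozyme. CPEB3 self-cleaving ribozyme libraries were made by rounds of error-prone PCR, barcoded, and transcribed in vitro with T7 RNA polymerase for 5 hours at 37°C, and cleavage ran through transcription plus a 15 min DNase I step before EDTA. Illumina sequencing of template-switched reverse transcripts gave the reads, and DNA sequencing mapped the barcodes. Averages come from three batches, using variants with at least 5 reads.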

Variant | self-cleavage
G22C U54C G55A U72C | 0.08
G22U A28G A56G U72A | 0.1
G22U A28U U54G U72C A77U | 0.07
G22U A28U U67G | 0.1
G22U A35G C62A | 0.13
G22U A45G C68A | 0.14
G22U C44G U58C U72G U74C | 0.03
G22U G42C U43C G53C U69A U72C U78C | 0.05
G22U G42U U60C U78A | 0.04
G22U U41C U54C | 0.09
G22U U41C U60A A64G | 0.43
G22U U48C U54C | 0.05
G22U U51C A57U A64U | 0.11
G22U U51C A64G U72C | 0.17
G22U U51C G61A U69A | 0.08
G22U U51C U69C A77G U78C | 0.09
G22U U58C U66C U80A | 0.36
C23A A28G A45G | 0.04
C23A A28G G33U C38U U43A U80C | 0.09
C23A A28G U41A A56G U72G | 0.53
C23A A35C U72C A77G | 0.23

Variant | self-cleavage
C23A A35U A65G U78A | 0.01
C23A A35U U72A | 0.06
C23A A45G A56U U60C | 0.05
C23A A45G G52A U67C | 0.05
C23A A47G G63U | 0.2
C23A A56G A75U | 0.19
C23A A56G U78A U80C | 0.05
C23A A57G A75G | 0.12
C23A A64G U78A | 0.2
C23A C39U U72A | 0.11
C23A C40U A47G U69A | 0.11
C23A G24U U51A A56G | 0.08
C23A G30A U51C | 0.04
C23A G33A U43C U69C | 0.12
C23A G36C U54C U69C U80C | 0.03
C23A G36U U69C | 0.11
C23A G52A U69A | 0.16
C23A U25C A35G U78C | 0.06
C23A U25C U41A U67A A75U | 0.13
C23A U26A A35G U67C | 0.08
C23A U26A A64G U78A | 0.09

Variant | self-cleavage
C23A U26C A45C | 0.21
C23A U26C U31A U48C | 0.05
C23A U26C U31C C39U | 0.06
C23A U26C U51A A56G | 0.12
C23A U31A U43C U54C A65G | 0.05
C23A U31C U48C U51C | 0.09
C23A U41A A45G U60A | 0.24
C23A U43C U48C U54C | 0.31
C23A U43G U54A | 0.11
C23A U48C U58A U69G U74C C81A | 0.05
C23A U49A U58A U66C U72A | 0.07
C23A U49C A56G U67C U78C | 0.06
C23A U51A U72C | 0.24
C23A U54A U80C | 0.08
C23G A28G U31C U51A C62U U74A U78C | 0.15
C23G A28G U51A U72A G73A | 0.05
C23G A28G U54C G73A U76C | 0.06
C23G A35G C37U U80A | 0.07
C23G A35U A45G U48C U60C U67A | 0.24
C23G A35U U69A U78C | 0.05
C23G A45C U49C A56U U66C | 0.07

Variant | self-cleavage
C23G A45G U60C U74G | 0.09
C23G A47U G52A | 0.15
C23G A57G U67C | 0.04
C23G C71U U72C | 0.1
C23G G30A G63C | 0.07
C23G G33U A57G U69A | 0.02
C23G U25C A28C | 0.09
C23G U25C A45C | 0.36
C23G U25C A64G U69A | 0.13
C23G U25C C38A U43A U49A U66A | 0.04
C23G U25C U41C U54C | 0.12
C23G U25C U54C U78C | 0.11
C23G U25G C40A | 0.08
C23G U26A C27A U60A | 0.1
C23G U26A U48C | 0.11
C23G U26A U54C U60A U69G | 0.04
C23G U26C A56U G70A | 0.14
C23G U31A A35U U78C | 0.11
C23G U31A U51C A56G A64G | 0.06
C23G U31C A77G | 0.07
C23G U41A U43C C79G U80A | 0.06

From the RNAGym collection of RNA variant scans (doi:10.1093/nar/gkz1192)
